# Measured values as given in the supplement of paper PMC12632987.
# The full ranking holds about 1,800 sequences; the median of “median log2 fold change of GCK-ALFA target abundance (FLAG IP / Myc IP barcode read proportion)” is about 0.14, and the lowest 2% start at about -0.84. Some of the results follow.
# T1: TRAF2, Q12933
# T1 chain: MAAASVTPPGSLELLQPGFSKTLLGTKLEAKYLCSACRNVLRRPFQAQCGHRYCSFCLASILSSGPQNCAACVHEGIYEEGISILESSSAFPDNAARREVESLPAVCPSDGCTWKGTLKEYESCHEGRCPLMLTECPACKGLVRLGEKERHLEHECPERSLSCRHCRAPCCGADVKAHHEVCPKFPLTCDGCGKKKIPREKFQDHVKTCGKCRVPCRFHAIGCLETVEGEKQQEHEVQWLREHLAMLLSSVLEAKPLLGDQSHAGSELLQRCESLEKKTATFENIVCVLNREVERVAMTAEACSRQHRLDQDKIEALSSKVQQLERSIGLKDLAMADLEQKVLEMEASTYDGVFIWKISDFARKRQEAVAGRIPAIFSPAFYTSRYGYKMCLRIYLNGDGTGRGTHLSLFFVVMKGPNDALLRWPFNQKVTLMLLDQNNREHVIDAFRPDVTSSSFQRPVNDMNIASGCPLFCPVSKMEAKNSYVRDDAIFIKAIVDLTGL
# B1: traf2_out_20_3_2157 (protein)
# chain: SELEKKAEEALKKAEKLLEEAAKLADPETAKKLKELKKKVEKSKELPYEDRLVVLSEVRREVLALAEAAAAAGKKELAEVLEKAAEALNKAMNLTYKIIE
# B2: traf2_out_20_3_2142 (protein)
# chain: EELEKKLKEALKAAEKTLKQAAKLADPATAARLDALIARLKASEKLSYEDRLVELSAIRREVLALAVEAEAAGRAELAALLNAAADELNKAMNLLMKIIE
# B3: traf2_out_18_167_1884 (protein)
# chain: KEELEKKRQEAVDKLVELSALRRALREILAALEESREAARAALDAALAAHPDSAILKEAKTVFETKSDEEFRAFLEAQAEALQKEANKAYQEILELEKEL
# B4: traf2_out_16_171_1431 (protein)
# chain: SAEEKEKALKEEIDKERDDIIERMETAVEVTPLISKETGLTVEQIAKGFRSTMDDRIEALKKKYEEAAKTASEEVKKYMKERLEEIEKAKEEALKKILEI
# B5: traf2_out_3_89_2285 (protein)
# chain: SPEREALIREARERARRYVRGFEKSLTFVAKEMVAEGHSLDTLRGVANAAKSAIVEEFRESLKERGLDEETIEELVEELERELDAVVDKILAAAAAARAA
# B6: traf2_out_20_3_2081 (protein)
# chain: EELKKQAEEARKEAIKILKEAAKLADEETAKKLKELIKKLKESEKLPLSDQLVVLSEVRRELLLLAQEAKAAGNEELAKKLEEAAEAVGRLANLVYKILQ
# B7: traf2_out_20_3_2123 (protein)
# chain: EELEKELEKEEEKAIKLLKEAAKISDPETAKKLKELIEKLKKSKELSPSDRLVVVSEIRREVRLLAEEAAKAGKKELAEILEKAADALNRAAQLLYEIEK
# B8: traf2_out_9_17_2620 (protein)
# chain: AAREAALREALLAVTDEILEELIERGLITEEEAEEIRRKVEEAIERGLSPEEVRALFLGSIASILLQPDGLSVKEAQEVVGAVYRRWRERLAAREAAAAA
# B9: traf2_out_13_95_1216 (protein)
# chain: SAEAKARLREISNRMLDEAEEIVEELAEKAAPFPETAPDMDRIRHALRNYGIRQAIALIREAAAAHPELRELFEEAAERLEELRRRAGREVARVLKEDAE
# B10: traf2_out_11_169_793 (protein)
# chain: EEAEKNRQINDFALALNDEAKEKLKKEALKLAKEAGLDVEEVKAIFEKNKNASLSYVASELIKYFKSKGKEEEAEAIEKKYEELKEEINKKATAHIKELE
# B11: traf2_out_1_27_1020 (protein)
# chain: SDAEFTALLRETQRQIAAVDAEEARKVVREAIREAHERGIGDPANLAVALYTSQMDPEMAEAILEAVLEAFRELGVPEEEIERVRRRMDSARARLEKLLA
# B12: traf2_out_20_38_2014 (protein)
# chain: SEEEEERRREEELIEKAREAYDEAEKWVAELKAKGKSVEEIAEEAKKRVTELLNAAGLEEEAKILVEDIDRVKDSPDAERLIVRILARARTLVFQKELQK
# B13: traf2_out_5_63_2360 (protein)
# chain: SEREELTALAREADRLVRELLAAARAGDAARVDALLERAVADPELARLVLGILKGEARYYKLRGDQPEEAALAAALAAQLAARMAEAAAAEAAAAAAAAA
# B14: traf2_out_1_27_1017 (protein)
# chain: SDEELTELIRETDRKIAAVSLEEAKEVVKEALREAYELGPEDAVVLATTLIASQLDEERLEAIREAAVEAFKELGFPQETIDRLKRIADSVLERNKKVAA
# B15: traf2_out_6_156_2400 (protein)
# chain: MVEKILEETKKKIEELIKELSEASEEKKIAYINRIAGTVYRGLQRLREAGASLEELRKFVEEVLKFTEKKLKEAGIPEDIRNLILSSLNAVGEVALAEAA
# B16: traf2_out_13_95_1160 (protein)
# chain: SKELAKKIMEIADEMLDESEKILEELLKIAKEKGKLEKEVQEALDLARYRSINEAIHKLEELAKKYPEFKEEFEKAIKKLKELKREAGKKVAKLIKEEEE
# B17: traf2_out_20_3_2151 (protein)
# chain: SELEEEARRALEEAIRLLAEAAELADPETAAELEELRARVEASRELPPEDRLVVLSEVRRRVLELAERARAAGREELAAVLEEAAEALNRAMQLVYQLIL
# B18: traf2_out_20_3_2194 (protein)
# chain: SELEKELEKELQKAIKLLEEAAKLADPETAAKLKKLIKRIKESRKLSYSDRLVVLSEVRREVLRLAEEAKKAGKEELAKVLEKAAEALNKAMNILMKIIE
# B19: traf2_out_20_3_2170 (protein)
# chain: EELEKELEKVLKEAIETLKKAAEKADEETAKKLEELIKRLKESRKLSPEDRLVELSEIRREVLKLAEEAAKKGDEELAKLLEEAADLLNRAMQLEYKIIE
# B20: traf2_out_17_162_1521 (protein)
# chain: SPLEAELKALEAELEALKKKLEELKKKLENLDKMSKEELTDLLVEASEARRKALELAERLKRLKPLIGEERAGALIAEAEAIAEELQKIANKIYKKLEEK
# B21: traf2_out_17_178_1677 (protein)
# chain: SKEEERKKISEYTDELIDLTEETGAEFLAIARAEGTLSPEELAALEAARRRGSNRTFLALARRAAPKLKTAEEAQALLDEFEKKARELEKKIAEAYKKYE
# B22: traf2_out_9_17_2607 (protein)
# chain: SALEEKKREAILEAAEEVLKELVEEGYITEEQAEEILKKVKELIEEGKSPEEIVASFLGDIASTLLTKSDLPLSEVNKVVGEAYRRLRERLAEAEEELAA
# B23: traf2_out_11_169_836 (protein)
# chain: KEQEKNRKINDKALELNDKAKEELKKFALKLAKEAGLDVEEIEKIFEENKGKSFSYIAGKLIDYFTSQGKEEAAKAILEKYEELKDKINKEATAFIKSLE
# B24: traf2_out_13_95_1109 (protein)
# chain: SKETAEKIMEVADEMLDKVEELLEKLLEKAKAAGKLEEEVQEALDLAKYRSINEAIHLLEELAKKYPEFKEEFEKTIEEIKALKREAGRKVAEILKEEKE
# B25: traf2_out_6_3_2526 (protein)
# chain: DEESLRRDARRVLENMGITTAEQLKALVKAEVNAVKKVASRPDIDQADIAGLRSVLALARAMVDVAAEELPDVTEEDVKEMNALIAEAEALVEAKAKELA
# B26: traf2_out_13_95_1226 (protein)
# chain: SAEANEKLREVSNEMLDRAEAVVDALEAQLAPHPELQPAMAAVRRALREQGIRAAIAQLRAAAAQFPEVAALLDAAAAELEAIRREAGRRVAEILKEEKE
# B27: traf2_out_10_21_630 (protein)
# chain: SEEREKALEIVKEYIESGEAPYVAALLAAELILREKGVDVETMGEILHALAKELKKLSDEEVLELAKKYYEAIENKDEEEIEKLLEELKKLAEEEKEKKA
# B28: traf2_out_16_171_1439 (protein)
# chain: MKEEEEKKLKEEIEREAEELIERLETAVEMTPLIMKETGLSKEQIAKGVRSTFTDRIEHLEKIWEEKSKNASEEVKKFIKEELERVKKALEEAIKKILAI
# B29: traf2_out_12_187_945 (protein)
# chain: SVQDELIAAAKAALERAIKALEKVAPTSEEAKEFLEKLKKIAELMEKHPELAADANVAASAVLRWVRLVEAGAPAEEIAAAAARAKEILEEVLKEAEKLA
# Biological target: T1, TRAF2, Q12933
# Assay: median log2 fold change of GCK-ALFA target abundance (FLAG IP / Myc IP barcode read proportion) (log2 ratio); each designed protein is fused to an ALFA-tag nanobody in HEK293 cells to bring the named protein to FLAG-tagged glucokinase (GCK); Myc marks an untargeted standard; higher = target protein stabilised (more abundant)
# Conditions: target protein: 3xFLAG-MCP-GCK-ALFA reporter; HEK293 landing pad (RPLP)
# Description: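 LABEL-seq trans screen in HEK293 landing-pad cells. Each de novo designed 100-aa effector handle, binding the indicated effector (E3 ligase, DUB or autophagy protein), is fused to a constant NbALFA target handle and induced with 2 ug/mL doxycycline. A FLAG-MCP-GCK-ALFA target and a Myc-MCP standard reporter were transfected, and after 48 h circRNA barcodes were recovered by anti-FLAG and anti-Myc IP and sequenced. The value is the median across barcodes (at least 3 per design) of log2(FLAG/Myc read-proportion ratio), with the two transfection replicates pooled. Negative values mean degradation and positive values mean stabilisation of the target.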
row,Binder,median log2 fold change
1,B1,0.34
2,B2,0.31
3,B3,0.173
4,B4,0.175
5,B5,-0.531
6,B6,0.0612
7,B7,0.267
8,B8,-0.683
9,B9,-0.484
10,B10,0.248
11,B11,0.14
12,B12,0.392
13,B13,-0.0509
14,B14,0.124
15,B15,-0.0734
16,B16,-1.21
17,B17,0.119
18,B18,0.238
19,B19,0.361
20,B20,0.311
21,B21,0.253
22,B22,0.235
23,B23,0.2
24,B24,-0.738
25,B25,-0.0761
26,B26,-0.0202
27,B27,0.313
28,B28,0.062
29,B29,0.258
